{"source": "PubChem BioAssay AID488969", "about": "(Vanderbilt High Throughput Screening Facility, 2010)", "note": "The full ranking holds about 110,000 compounds; the median of “z-score” is about -0.1, and the highest 2% start at about 2. The list shows a part of the results."}
{"biological_target": "Metabotropic glutamate receptor 8 (Rattus norvegicus) (UniProt P70579)", "sequence (P70579 whole entry, looked up)": "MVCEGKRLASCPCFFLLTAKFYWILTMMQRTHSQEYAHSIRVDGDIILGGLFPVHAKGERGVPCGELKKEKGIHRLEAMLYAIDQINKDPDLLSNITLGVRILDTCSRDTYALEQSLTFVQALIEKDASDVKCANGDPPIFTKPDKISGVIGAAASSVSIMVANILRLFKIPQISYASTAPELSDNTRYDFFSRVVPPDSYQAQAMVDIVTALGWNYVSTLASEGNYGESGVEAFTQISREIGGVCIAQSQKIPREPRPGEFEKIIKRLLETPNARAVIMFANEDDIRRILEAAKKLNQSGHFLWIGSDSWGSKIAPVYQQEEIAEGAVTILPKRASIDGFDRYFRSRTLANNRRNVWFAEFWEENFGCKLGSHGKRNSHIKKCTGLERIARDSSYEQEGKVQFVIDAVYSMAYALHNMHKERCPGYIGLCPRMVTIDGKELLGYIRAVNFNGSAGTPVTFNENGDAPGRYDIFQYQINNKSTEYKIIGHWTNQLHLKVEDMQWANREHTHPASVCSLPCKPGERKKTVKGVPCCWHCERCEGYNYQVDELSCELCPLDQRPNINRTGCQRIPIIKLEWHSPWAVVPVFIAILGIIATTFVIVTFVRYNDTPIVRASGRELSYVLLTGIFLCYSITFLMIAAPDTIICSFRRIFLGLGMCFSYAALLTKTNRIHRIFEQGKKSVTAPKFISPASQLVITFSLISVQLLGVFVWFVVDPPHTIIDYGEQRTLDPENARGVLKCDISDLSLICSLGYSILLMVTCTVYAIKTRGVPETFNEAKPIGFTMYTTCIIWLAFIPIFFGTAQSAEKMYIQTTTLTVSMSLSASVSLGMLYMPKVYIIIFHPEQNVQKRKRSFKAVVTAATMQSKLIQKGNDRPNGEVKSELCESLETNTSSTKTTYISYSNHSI", "assay": "mGluR8 Gi/Go-coupled signaling modulation – cell-based, rat, thallium flux, HTS, primary screen (AID 488969)", "settings": "HEK293 rat mGluR8, GIRK (G protein-gated inwardly rectifying potassium channel) thallium flux, FluoZin2; at 10 µM; stronger effect = higher value; submaximal glutamate (EC20) added with thallium"}
{"smiles": "NS(=O)(=O)c1ccc(CNC(=O)C2CCCCC2)cc1", "z-score": 0.0132}
{"smiles": "O=C1CC(NNc2nc3ccccc3s2)C(=O)N1c1ccccc1", "note": "(centres undefined)", "z-score": 0.181}
{"smiles": "c1ccc(OCCSc2nc3ccccc3o2)cc1", "z-score": 0.228}
{"smiles": "O=C(OCCn1cncn1)c1cc2ccccc2oc1=O", "z-score": -0.3}
{"smiles": "CCC(=O)c1ccc(OCCSc2ncccn2)cc1", "z-score": -0.0986}
{"smiles": "O=C(Nc1cc(C(F)(F)F)ccc1N1CCOCC1)c1cn2ccccc2n1", "z-score": -0.314}
{"smiles": "O=[N+]([O-])c1cc(/C=N/O)ccc1SCc1ccccc1Cl", "z-score": -0.158}
{"smiles": "CC(=O)c1c(O)cc(C)n(Nc2nc(C)cc(C)n2)c1=O", "z-score": -0.103}
{"smiles": "CCc1ccc(-n2c(O)c(C=NCCN(CC)CC)c(=O)[nH]c2=O)cc1", "z-score": -0.174}
{"smiles": "CCC(CC)C(=O)NC12CC3CC(CC(C3)C1)C2", "z-score": -0.274}
{"smiles": "Cc1cc(NC(=O)CSc2nc3sc(C)c(C)c3c(=O)n2C2CCCC2)no1", "z-score": 0.0759}
{"smiles": "CCOCC(=O)Nc1nnc(COCC)s1", "z-score": 0.935}
{"smiles": "Cc1cc(C)n2ncc(C(=O)NCc3cccnc3)c2n1", "z-score": 1.28}
{"smiles": "O=C(CN1CCC(N2CCCCC2)CC1)N1CCCc2ccccc21", "z-score": -0.0225}
{"smiles": "O=C(Cc1ccc(-n2c(=O)[nH]c3ccccc3c2=O)cc1)N1CCN(c2cccc(Cl)c2)CC1", "z-score": 0.0665}
{"smiles": "COc1ccccc1N1CCN(c2cc(N3CCCC3)nc(C)n2)CC1", "z-score": -1.03}
{"smiles": "O=C(Nc1ccccc1)/C(=C\\c1ccc2c(c1)OCO2)NC(=O)c1ccco1", "z-score": -0.0407}
{"smiles": "Cc1nn(-c2ccc([N+](=O)[O-])cc2)c2c1C(c1cccc(Br)c1)N1C(=N2)C(=O)Nc2ccccc21", "note": "(centres undefined)", "z-score": -0.118}
{"smiles": "O=C(Nc1cccc(Cl)c1N1CCCC1)c1cc2ccccc2o1", "z-score": 0.0526}
{"smiles": "COCCCNc1nc2c(c(=O)n(C)c(=O)n2C)n1Cc1cccc(OC)c1", "z-score": -0.0153}
{"smiles": "N/C(Cc1ccc(Cl)cc1Cl)=N\\OC(=O)Cc1ccccc1", "z-score": 0.0368}
{"smiles": "Cc1cccc(Cn2ncc(Cl)c(Cl)c2=O)c1", "z-score": -0.219}
{"smiles": "CC(C)(C)C1CC=C2C(C#N)=C(N)C(C#N)(C#N)C(c3cccs3)C2C1", "note": "(centres undefined)", "z-score": 0.0392}
{"smiles": "Cc1cc(C)c(-c2csc(NC(=O)/C=C/c3cccs3)n2)c(C)c1", "z-score": 0.751}
{"smiles": "Cc1ccc(N2C(=O)C3N=NN(CC(=O)N4N=C(c5cccc6ccccc56)CC4c4ccccc4)C3C2=O)cc1", "note": "(centres undefined)", "z-score": 0.269}
{"smiles": "Cn1c(Cn2nnc3ccccc32)nnc1SCC(=O)N1c2ccccc2CCc2ccccc21", "z-score": -0.396}
{"smiles": "COc1ccccc1N1CCN(C(=O)C2CCN(S(=O)(=O)c3ccccc3)CC2)CC1", "z-score": -0.5}
{"smiles": "Cc1ccc(S(=O)(=O)N(C)CCCC(=O)Nc2cccc3ccccc23)cc1", "z-score": -0.456}
{"smiles": "COc1cc(C2C(C(=O)OC(C)C)=C(C)Nc3[nH]c(=O)[nH]c(=O)c32)ccc1O", "note": "(centres undefined)", "z-score": -0.0345}
{"smiles": "CCOC(=O)c1cc(NC(=O)COc2ccc([N+](=O)[O-])cc2)cc(C(=O)OCC)c1", "z-score": -0.0752}
{"smiles": "CCC(=O)N(Cc1cc2cc(OC)ccc2[nH]c1=O)c1ccccc1C", "z-score": -0.0448}
{"smiles": "CCc1ccc(-c2nc(CSCC(=O)N3CCN(c4ccccn4)CC3)c(C)o2)cc1", "z-score": -1.53}
{"smiles": "COC(=O)C(CC(C)C)NC(=O)/C=C/c1ccccc1Cl", "note": "(centres undefined)", "z-score": 1.32}
{"smiles": "COc1ccc2oc(C(F)(F)C(F)(F)F)cc(=O)c2c1", "z-score": -0.09}
{"smiles": "COC(=O)c1nn(-c2ccccc2)c(-c2ccccc2)c1C(=O)c1ccccc1", "z-score": -0.523}
{"smiles": "Cc1ccc(SCc2[nH]nc3c2C(c2ccco2)C(C#N)=C(N)O3)cc1", "note": "(centres undefined)", "z-score": -0.0516}
{"smiles": "CC(/C=N/Nc1nnc(C)c(=O)[nH]1)=C\\c1ccccc1", "z-score": 0.334}
{"smiles": "O=C(CN1CCCCC1)N1c2ccccc2Sc2ccc(C(F)(F)F)cc21", "z-score": 0.37}
{"smiles": "COc1cccc(C=Nc2ccccc2C#N)c1O", "z-score": -0.48}
{"smiles": "Cc1ccc(NC(=O)CCC(=O)NNS(=O)(=O)c2ccccc2)c(C)c1", "z-score": -0.19}
{"smiles": "CCOC(=O)c1cnn(-c2ccccc2)c1-n1cccc1C(=O)C(=O)Nc1ccccc1", "z-score": -0.123}
{"smiles": "O=C(NCc1cccs1)c1ccc(N2CCCCC2)nc1", "z-score": -0.0683}
{"smiles": "COc1ccc(-c2noc(CSc3nc4ccccc4c(=O)n3-c3ccccc3)n2)cc1", "z-score": 0.0539}
{"smiles": "N#CC(c1ccccc1)N(CCCCl)C(=O)c1ccc(Br)cc1", "note": "(centres undefined)", "z-score": -0.943}
{"smiles": "N#Cc1cccc(NC(=O)CCn2ccnc2)c1", "z-score": -0.0613}
{"smiles": "Cc1ccc2[nH]c3c(c2c1)CCCC3=O", "z-score": -0.217}
{"smiles": "Cc1ccc(NC(=O)N2CCC(=O)N2)cc1", "z-score": -0.134}
{"smiles": "O=c1[nH]c2ccc(S(=O)(=O)Nc3ccc(-c4nnc5n4CCCCC5)cc3)cc2o1", "z-score": 0.32}
{"smiles": "CN(CC(=O)Nc1cccc2c1CCCC2)S(=O)(=O)c1ccc(Br)cc1", "z-score": 0.0643}
{"smiles": "Cn1c(=O)oc2cc(S(=O)(=O)N3CCC(C(=O)N4CCc5ccccc5C4)CC3)ccc21", "z-score": -0.202}
{"smiles": "O=C(c1ccco1)N1CCN(/C(=N/S(=O)(=O)c2cccs2)c2ccccc2Cl)CC1", "z-score": -0.366}
{"smiles": "N/C(=N\\OC(=O)c1cccc(Br)c1)c1ccccc1", "z-score": -0.149}
{"smiles": "CCOCCOC(=O)C1=C(C)NC2=C(C(=O)CC(c3cccs3)C2)C1c1ccsc1", "note": "(centres undefined)", "z-score": -0.338}
{"smiles": "CC(=O)Nc1c(C(=O)c2ccccc2)oc2ccccc12", "z-score": -1.06}
{"smiles": "O=C(O)CCCC(=O)Nc1cccc2cccnc12", "z-score": 0.291}
{"smiles": "O=C(CN1C(=O)c2ccccc2C1=O)NN1C(=O)c2ccccc2C1=O", "z-score": -0.0861}
{"smiles": "O=C(CSc1cccc[n+]1[O-])Nc1cc(S(=O)(=O)N2CCOCC2)ccc1Cl", "z-score": -0.237}
{"smiles": "CCCSc1nc(N2CCCC2)c2c(c1C#N)CC(C)(C)OC2", "z-score": 0.643}
{"smiles": "Cc1ccc(C(=O)NCCNc2ccc(Cl)cc2[N+](=O)[O-])o1", "z-score": -0.083}
{"smiles": "O=C(NC1CCCCCCC1)C1CCN(c2nc3ccccc3o2)CC1", "z-score": -0.284}
{"smiles": "Cc1sc2ncnc(SCC(=O)c3ccc(Cl)s3)c2c1C", "z-score": 1.06}
{"smiles": "NC1=NC(=O)/C(=C\\C=C\\c2ccccc2)S1", "z-score": -0.284}
{"smiles": "COc1ccc(Cn2nnnc2C(c2cc3ccc(OC)cc3[nH]c2=O)N2CCCCCC2)cc1", "note": "(centres undefined)", "z-score": 0.352}
{"smiles": "CCOC(=O)c1c(-c2ccccc2)csc1NC(=S)NC(=O)c1ccccc1", "z-score": 1.06}
{"smiles": "COc1ccc(C2C(C#N)=C(N)OC3=C2C(=O)CC(C)(C)C3)c([N+](=O)[O-])c1OC", "note": "(centres undefined)", "z-score": 0.0302}
{"smiles": "COc1ccc(OCCCC(=O)Nc2cc([N+](=O)[O-])ccc2C)cc1", "z-score": 0.716}
{"smiles": "CCOC(=O)N1CCN(C(=O)c2ccc(-n3c(C)ccc3C)cc2)CC1", "z-score": -0.0922}
{"smiles": "COc1cc(/C=N/O)cc(Br)c1OCC(=O)NCc1ccccc1", "z-score": 0.215}
{"smiles": "COc1ccc(C(C)(C)C)cc1NC(=O)c1c(C)noc1C", "z-score": -0.421}
{"smiles": "CCOC(=O)CSc1ccc(S(=O)(=O)N(C)C2CCCCC2)cc1[N+](=O)[O-]", "z-score": -0.248}
{"smiles": "CCn1nnnc1Oc1ccc(Cl)cc1", "z-score": -0.341}
{"smiles": "COC(=O)/C=C/C(=O)NCc1ccco1", "z-score": -0.16}
{"smiles": "CCC(=O)N1CCCn2c1nc1ccccc12", "z-score": 0.129}
{"smiles": "COc1ccc(NC(=O)CCOc2ccccc2)cc1", "z-score": 0.0744}
{"smiles": "CCOC(=O)C1CCN(S(=O)(=O)c2c(C)n(C)c(=O)n(C)c2=O)CC1", "z-score": 0.114}
{"smiles": "COc1ccccc1CNC(=O)CCCn1c(=O)c2ccccc2n(CC(=O)NC2CCCC2)c1=O", "z-score": -0.214}
{"smiles": "O=C(Nc1cnn(Cc2ccc(Cl)c(Cl)c2)c1)C12CC3CC(CC(C3)C1)C2", "z-score": -0.135}
{"smiles": "Cc1cccc[n+]1CC(=O)/C=C1\\N(C)c2ccccc2C1(C)C", "z-score": -0.11}
{"smiles": "CC(C)OCCCNC(=O)CN1C(=O)CC(C)(C)S(=O)(=O)c2ccccc21", "z-score": -0.731}
{"smiles": "O=C(c1ccc([N+](=O)[O-])cc1)N(C1=NCCCCS1)c1ccccc1", "z-score": 0.0339}
{"smiles": "COc1ccc2c(c1)OC(c1ccccc1)(C(F)(F)F)NC2=O", "note": "(centres undefined)", "z-score": -0.406}
{"smiles": "Cc1ccccc1S(=O)(=O)Nc1nc2ccccc2nc1NCCO", "z-score": 0.725}
{"smiles": "COc1cc(OC)cc(C(=O)NCCC(=O)NCCc2ccc(OC)c(OC)c2)c1", "z-score": -0.893}
{"smiles": "CC(C)(C)NS(=O)(=O)c1ccc(CCC(=O)Nc2ccc3c(c2)OCCO3)cc1", "z-score": -0.0964}
{"smiles": "COC(=O)c1cccc(NC(=O)/C=C/c2ccc3c(c2)OCO3)c1", "z-score": -0.32}
{"smiles": "Oc1cc2c(cc1CN1CCN(c3cccc(C(F)(F)F)c3)CC1)CCC2", "z-score": -0.0251}
{"smiles": "O=C(COc1ccc(S(=O)(=O)N2CCCC2)cc1Cl)NC1CCCC1", "z-score": -0.0129}
{"smiles": "Cc1sc(NC(=O)CSc2nnc(-c3ccc(F)cc3)o2)c(C#N)c1C", "z-score": -0.213}
{"smiles": "O=C(Nc1ccc(F)cc1)c1sccc1SCc1cccc(C(F)(F)F)c1", "z-score": -0.0682}
{"smiles": "Cc1ccc(OCC(=O)NN2C(=O)c3ccccc3C2=O)c(C)c1", "z-score": -0.11}
{"smiles": "O=C(CCN1C(=O)C2C3C=CC(C3)C2C1=O)NCc1cccnc1", "note": "(centres undefined)", "z-score": 0.0149}
{"smiles": "Cc1onc(-c2ccccc2Cl)c1C(=O)Nc1ccc(-c2nnc3n2CCCCC3)cc1", "z-score": -0.361}
{"smiles": "COc1ccccc1C(=O)NC(=S)N1CCCc2ccccc21", "z-score": -0.0293}
{"smiles": "C/C(=N/Nc1ccc(C(=O)O)cc1)c1ccc(O)c(O)c1O", "z-score": -0.383}
{"smiles": "CN1C(=S)SC(/[N+]([O-])=C\\c2ccc(Cl)cc2)C1(C)C", "note": "(centres undefined)", "z-score": -0.365}
{"smiles": "CC(C)Cn1cnc2c1c(=O)n(CC(O)c1ccccc1)c(=O)n2CC(C)C", "note": "(centres undefined)", "z-score": -0.206}
{"smiles": "O=C(N1CCOCC1)N1CCCN(C(=O)N2CCOCC2)CC1", "z-score": -0.237}
{"smiles": "C/C(Cc1ccccc1)=N\\NC(=O)c1ccc(F)cc1", "z-score": 0.49}
{"smiles": "CC(C)c1ccc2c(c1)C(=O)NC(C)(C)C2", "z-score": -0.156}
{"smiles": "COc1ccccc1CCNC(=O)CCSc1nc(-c2ccco2)cc(C(F)(F)F)n1", "z-score": -0.294}
{"smiles": "O=C(CSc1nnc(Nc2ccccc2)s1)NCc1cccs1", "z-score": -0.304}
{"smiles": "CCCN(CCC)C(=O)c1ccccc1C(=O)N(CCC)CCC", "z-score": -0.328}
{"smiles": "CCOC(=O)N1CCN(C(=O)C2CCN(S(=O)(=O)c3ccc(C)cc3)CC2)CC1", "z-score": -0.0746}
{"smiles": "CN(/N=C/c1c[nH]c2ccccc12)c1cnn(-c2ccc(F)c(Cl)c2)c(=O)c1Cl", "z-score": -0.0271}
{"smiles": "CCNc1nc(Oc2ccccc2)nc(OC(C)C(=O)OCC)n1", "note": "(centres undefined)", "z-score": -0.197}
{"smiles": "COc1cccc(S(=O)(=O)Nc2cccnc2)c1", "z-score": 0.144}
{"smiles": "CC(=O)Nc1ccc(C(=O)CSc2cc(C)c3cccc(C)c3n2)cc1", "z-score": -0.182}
{"smiles": "O=C(CCn1c(=O)oc2ccccc21)N1CCN(c2ccccc2F)CC1", "z-score": 0.462}
{"smiles": "COCCn1c(CCC(=O)O)nc2c1c(=O)[nH]c(=O)n2CC(C)C", "z-score": 0.385}
